Results reported in the supplement of paper PMC8728848.
This is one part of the list.

Key:
Test in all cases: glycan array binding signal (z-score within array); higher = stronger binding
Details in all cases: glycan notation: IUPAC condensed, linker removed
[1] = target: Fuc(a1-2)Gal(b1-4)GlcNAc(b1-3)Gal(b1-4)GlcNAc(b1-3)Gal(b1-4)GlcNAc
Summary of the method: (§1)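 Columns mapping to the same glycan were averaged after glycan names were converted to IUPAC-condensed notation. The data come from 3228 arrays in the Consortium for Functional Glycomics database, limited to those with an available protein sequence. Binding is reported as a within-array Z-score averaged across arrays of one protein sequence and across linkers.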

[2] = target: Fuc(a1-2)Gal(b1-4)GlcNAc(b1-3)GalNAc
Summary of the method: as §1

[3] = target: Fuc(a1-2)Gal(b1-4)GlcNAc(b1-3)[Fuc(a1-2)Gal(b1-4)GlcNAc(b1-6)]GalNAc
Summary of the method: as §1

[4] = target: Fuc(a1-2)Gal(b1-4)GlcNAc(b1-3)[Fuc(a1-3)[Gal(b1-4)]GlcNAc(b1-6)]Gal(b1-4)Glc
Summary of the method: as §1

[5] = target: Fuc(a1-2)Gal(b1-4)GlcNAc(b1-6)GalNAc
Summary of the method: as §1

[6] = target: Fuc(a1-2)Gal(b1-4)GlcNAc6S
Summary of the method: as §1

[7] = target: Fuc(a1-2)Gal(b1-4)[Fuc(a1-3)]GlcNAc
Summary of the method: as §1

[8] = target: Fuc(a1-2)Gal(b1-4)[Fuc(a1-3)]GlcNAc(b1-2)Man(a1-3)[Fuc(a1-2)Gal(b1-4)[Fuc(a1-3)]GlcNAc(b1-2)Man(a1-6)]Man(b1-4)GlcNAc(b1-4)[Fuc(a1-6)]GlcNAc
Summary of the method: as §1

[9] = target: Fuc(a1-2)Gal(b1-4)[Fuc(a1-3)]GlcNAc(b1-2)[Fuc(a1-2)Gal(b1-4)[Fuc(a1-3)]GlcNAc(b1-4)]Man(a1-3)[Fuc(a1-2)Gal(b1-4)[Fuc(a1-3)]GlcNAc(b1-2)Man(a1-6)]Man(b1-4)GlcNAc(b1-4)GlcNAc
Summary of the method: as §1

[10] = target: Fuc(a1-2)Gal(b1-4)[Fuc(a1-3)]GlcNAc(b1-3)Gal(b1-4)[Fuc(a1-3)]GlcNAc
Summary of the method: as §1

[11] = target: Fuc(a1-2)Gal(b1-4)[Fuc(a1-3)]GlcNAc(b1-3)Gal(b1-4)[Fuc(a1-3)]GlcNAc(b1-3)Gal(b1-4)[Fuc(a1-3)]GlcNAc
Summary of the method: as §1

[12] = target: Fuc(a1-2)Gal(b1-4)[Fuc(a1-3)]GlcNAc(b1-3)GalNAc
Summary of the method: as §1

[13] = target: Fuc(a1-2)Gal(b1-4)[Fuc(a1-3)]GlcNAc(b1-3)[Neu5Ac(a2-6)Gal(b1-4)GlcNAc(b1-6)]Gal(b1-4)Glc
Summary of the method: as §1

[14] = target: Fuc(a1-2)Gal3S(b1-4)GlcNAc
Summary of the method: as §1

[15] = target: Fuc(a1-2)Gal6S(b1-3)GlcNAc
Summary of the method: as §1

[16] = target: Fuc(a1-2)Gal6S(b1-3)GlcNAc6S
Summary of the method: as §1

Fuc(a1-2)Gal6S(b1-4)Glc = target: Fuc(a1-2)Gal6S(b1-4)Glc
Summary of the method: as §1

[17] = target: Fuc(a1-2)Gal6S(b1-4)Glc6S
Summary of the method: as §1

Fuc(a1-2)[Gal(a1-3)]Gal = target: Fuc(a1-2)[Gal(a1-3)]Gal
Summary of the method: as §1

[18] = target: Fuc(a1-2)[Gal(a1-3)]Gal(b1-3)GalNAc
Summary of the method: as §1

[19] = target: Fuc(a1-2)[Gal(a1-3)]Gal(b1-3)GalNAc(b1-3)Gal(a1-4)Gal(b1-4)Glc
Summary of the method: as §1

[20] = target: Fuc(a1-2)[Gal(a1-3)]Gal(b1-3)GlcNAc
Summary of the method: as §1

[21] = target: Fuc(a1-2)[Gal(a1-3)]Gal(b1-3)GlcNAc(b1-2)Man(a1-3)[Fuc(a1-2)[Gal(a1-3)]Gal(b1-3)GlcNAc(b1-2)Man(a1-6)]Man(b1-4)GlcNAc(b1-4)GlcNAc
Summary of the method: as §1

[22] = target: Fuc(a1-2)[Gal(a1-3)]Gal(b1-3)GlcNAc(b1-2)Man(a1-3)[Fuc(a1-2)[Gal(a1-3)]Gal(b1-3)GlcNAc(b1-2)Man(a1-6)]Man(b1-4)GlcNAc(b1-4)[Fuc(a1-6)]GlcNAc
Summary of the method: as §1

[23] = target: Fuc(a1-2)[Gal(a1-3)]Gal(b1-3)GlcNAc(b1-3)GalNAc
Summary of the method: as §1

[24] = target: Fuc(a1-2)[Gal(a1-3)]Gal(b1-3)GlcNAc(b1-6)GalNAc
Summary of the method: as §1

[25] = target: Fuc(a1-2)[Gal(a1-3)]Gal(b1-4)Glc
Summary of the method: as §1

[26] = target: Fuc(a1-2)[Gal(a1-3)]Gal(b1-4)GlcNAc
Summary of the method: as §1

[27] = target: Fuc(a1-2)[Gal(a1-3)]Gal(b1-4)GlcNAc(b1-2)Man
Summary of the method: as §1

[28] = target: Fuc(a1-2)[Gal(a1-3)]Gal(b1-4)GlcNAc(b1-2)Man(a1-3)[Fuc(a1-2)[Gal(a1-3)]Gal(b1-4)GlcNAc(b1-2)Man(a1-6)]Man(b1-4)GlcNAc(b1-4)GlcNAc
Summary of the method: as §1

[29] = target: Fuc(a1-2)[Gal(a1-3)]Gal(b1-4)GlcNAc(b1-2)Man(a1-3)[Fuc(a1-2)[Gal(a1-3)]Gal(b1-4)GlcNAc(b1-2)Man(a1-6)]Man(b1-4)GlcNAc(b1-4)[Fuc(a1-6)]GlcNAc
Summary of the method: as §1

[30] = target: Fuc(a1-2)[Gal(a1-3)]Gal(b1-4)GlcNAc(b1-3)GalNAc
Summary of the method: as §1

[31] = target: Fuc(a1-2)[Gal(a1-3)]Gal(b1-4)GlcNAc(b1-3)[Fuc(a1-2)[Gal(a1-3)]Gal(b1-4)GlcNAc(b1-6)]GalNAc
Summary of the method: as §1

[32] = target: Fuc(a1-2)[Gal(a1-3)]Gal(b1-4)GlcNAc(b1-6)GalNAc
Summary of the method: as §1

[33] = target: Fuc(a1-2)[Gal(a1-3)]Gal(b1-4)[Fuc(a1-3)]Glc
Summary of the method: as §1

[34] = target: Fuc(a1-2)[Gal(a1-3)]Gal(b1-4)[Fuc(a1-3)]GlcNAc
Summary of the method: as §1

[35] = target: Fuc(a1-2)[Gal(a1-3)]Gal(b1-4)[Fuc(a1-3)]GlcNAc(b1-3)GalNAc
Summary of the method: as §1

[36] = target: Fuc(a1-2)[Gal(a1-4)]Gal(b1-4)GlcNAc
Summary of the method: as §1

[37] = target: Fuc(a1-2)[GalNAc(a1-3)]Gal
Summary of the method: as §1

[38] = target: Fuc(a1-2)[GalNAc(a1-3)]Gal(b1-3)GalNAc(a1-3)[Fuc(a1-2)]Gal(b1-4)GlcNAc
Summary of the method: as §1

[39] = target: Fuc(a1-2)[GalNAc(a1-3)]Gal(b1-3)GalNAc(b1-3)Gal(a1-4)Gal(b1-4)Glc
Summary of the method: as §1

[40] = target: Fuc(a1-2)[GalNAc(a1-3)]Gal(b1-3)GlcNAc
Summary of the method: as §1

[41] = target: Fuc(a1-2)[GalNAc(a1-3)]Gal(b1-3)GlcNAc(b1-2)Man(a1-3)[Fuc(a1-2)[GalNAc(a1-3)]Gal(b1-3)GlcNAc(b1-2)Man(a1-6)]Man(b1-4)GlcNAc(b1-4)GlcNAc
Summary of the method: as §1

[42] = target: Fuc(a1-2)[GalNAc(a1-3)]Gal(b1-3)GlcNAc(b1-2)Man(a1-3)[Fuc(a1-2)[GalNAc(a1-3)]Gal(b1-3)GlcNAc(b1-2)Man(a1-6)]Man(b1-4)GlcNAc(b1-4)[Fuc(a1-6)]GlcNAc
Summary of the method: as §1

[43] = target: Fuc(a1-2)[GalNAc(a1-3)]Gal(b1-3)GlcNAc(b1-3)GalNAc
Summary of the method: as §1

B1: Mermaid3 (Stilbonema majum) (protein)
chain: MGSSHHHHHHSSGLVPRGSHMAASGWLRSPQGTVVKLYRRSLSWSKADEFCKDVDGRLVVDRTADMHLFLIKNVLKEKKSRVWVGLRRTASHSRTWIWSDGTRQNEGDLDANLWLRDEPNDAAGEEECALFMYSPWEKAWGLNDYLCRGGCRNYQFICEKWIR
[1]
  glycan array binding signal (z-score): -0.609
[2]
  glycan array binding signal (z-score): 0.007
[3]
  glycan array binding signal (z-score): 0.347
[4]
  glycan array binding signal (z-score): -0.185
[5]
  glycan array binding signal (z-score): 0.013
[6]
  glycan array binding signal (z-score): -0.614
[7]
  glycan array binding signal (z-score): -0.32
[8]
  glycan array binding signal (z-score): -0.641
[9]
  glycan array binding signal (z-score): -0.175
[10]
  glycan array binding signal (z-score): -0.221
[11]
  glycan array binding signal (z-score): -0.106
[12]
  glycan array binding signal (z-score): -0.366
[13]
  glycan array binding signal (z-score): -0.146
[14]
  glycan array binding signal (z-score): -0.003
[15]
  glycan array binding signal (z-score): -0.256
[16]
  glycan array binding signal (z-score): 2.47
Fuc(a1-2)Gal6S(b1-4)Glc
  glycan array binding signal (z-score): -0.591
[17]
  glycan array binding signal (z-score): -0.662
Fuc(a1-2)[Gal(a1-3)]Gal
  glycan array binding signal (z-score): -0.559
[18]
  glycan array binding signal (z-score): 1.47
[19]
  glycan array binding signal (z-score): -0.018
[20]
  glycan array binding signal (z-score): -0.379
[21]
  glycan array binding signal (z-score): -0.331
[22]
  glycan array binding signal (z-score): 0.272
[23]
  glycan array binding signal (z-score): -0.628
[24]
  glycan array binding signal (z-score): 0.092
[25]
  glycan array binding signal (z-score): 0.553
[26]
  glycan array binding signal (z-score): -0.174
[27]
  glycan array binding signal (z-score): -0.175
[28]
  glycan array binding signal (z-score): -0.617
[29]
  glycan array binding signal (z-score): -0.404
[30]
  glycan array binding signal (z-score): -0.662
[31]
  glycan array binding signal (z-score): 0.468
[32]
  glycan array binding signal (z-score): -0.383
[33]
  glycan array binding signal (z-score): -0.619
[34]
  glycan array binding signal (z-score): -0.034
[35]
  glycan array binding signal (z-score): -0.592
[36]
  glycan array binding signal (z-score): 3.05
[37]
  glycan array binding signal (z-score): -0.436
[38]
  glycan array binding signal (z-score): -0.848
[39]
  glycan array binding signal (z-score): -0.302
[40]
  glycan array binding signal (z-score): 0.176
[41]
  glycan array binding signal (z-score): -0.363
[42]
  glycan array binding signal (z-score): -0.494
[43]
  glycan array binding signal (z-score): 0.026
